Results as given in the supplement of paper PMC11417369.
The other results are listed elsewhere or left out.

What follows are sequences tested on PF3D7_0420300 AP2 domain 1 (GST-tagged) (assay: gcPBM binding intensity (ln(normalized median fluorescence intensity)); higher = stronger DNA binding).
How it was run: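 Plasmodium falciparum DNA-binding domains carrying a GST tag were expressed in E. coli and applied for 1 h, at about 25 μg on average, to an Agilent 4 × 180k array. The array held primer-extended double-stranded 36-bp intergenic genomic probes together with negative controls, and binding took place in 1× PBS with 1% milk, 0.2 mg/ml BSA, 0.5% salmon testes DNA and 0.03% Triton X-100. An Alexa488 anti-GST antibody detected bound protein, and the array was scanned at 488 nm. Binding intensity is taken as the highest Masliner-normalised natural-log median intensity across replicate spots of either probe orientation.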

| Sequence | gcPBM binding intensity (ln) |
| --- | --- |
| AAATTAAAATAATAATTCTACAAATTAATTTATCAT [XGTACX_negctrl_site44] | 9.01 |
| TATCAAATGTATATATGTACTTATATTTTTTTTATA [XGTACX_site1501] | 9.19 |
| AATATATTTTCCTGCAAACACACATATAAATGTGTA [CACACA_site532] | 9.38 |
| TATATTACAAAAAGTACACACATAAATAAATACATA [CACACA_site975] | 9.81 |
| ATGCTCAAAAGATATGCATGTACAAATATATGAAAT [TGCATGCA_site592] | 9.1 |
| TGATACTTATGATAAATACACACTTGAAATTAAGGA [CACACA_site1152] | 9.25 |
| TATATAGCATATTTCACACACACATAATGAATATTA [CACACA_site3546] | 9.82 |
| ATGATATACGTAAACACACAAATAAAAAAAATTTAT [CACACA_site7544] | 9.25 |
| TTTTTTAGTTTTTAGTGTACATAAATAAATAAATAA [XGTACX_site2843] | 8.79 |
| TTAAAAAGAAAGTTCACACACATATAGATGACGGAA [CACACA_site7268] | 9.76 |
| GGTTCATATATTAACACACACATACATATTATATAT [CACACA_site2937] | 9.87 |
| TGAGAGAGAAACGTAGTGCATAAAATCAAATTTAGA [GTGCAC_site9737] | 9.32 |
| AATAATCATAGTTCTACACACCTATATTGCAAAAAA [CACACA_site867] | 9.41 |
| TAATATGTATTTACAAGTACTAACAAAATATTAAAA [XGTACX_site3379] | 9.12 |
| TACAAAAATAAATGTTGTACTATTATTTATTTCGAT [XGTACX_site1048] | 9.02 |
| TTATAAAAAATTTTAGTGCATATATGATTTATATAT [GTGCAC_site9831] | 8.95 |
| TTAAAGATATACAAAAGTACTTTTTTTTTCGTCATT [XGTACX_site384] | 8.98 |
| TTCATTAAATAGAACAAAATAATAATATAACAACAA [GTGCAC_negctrl_site116] | 9.5 |
| CCATATCTTTTTTGCACACACTACAATAAAACAAAA [CACACA_site4995] | 9.43 |

| Sequence | gcPBM binding intensity (ln) |
| --- | --- |
| GTAATATTATAATATACACACATAGAATATAAATAT [CACACA_site6333] | 9.68 |
| AAAATACACCAACACACACACATATATATATATATT [CACACA_site4149] | 10.1 |
| TTCAAGATTTATTATACACACATATTAATATATATA [CACACA_site573] | 9.41 |
| TTATTTTTTCTTTTTTTTCTTACCACAAAAATGGAT [CACACA_negctrl_site362] | 9.06 |
| ATTTATTTATATAATACACACAAATATCTTAATGAA [CACACA_site6064] | 9.39 |
| ATTTTTTCTAATGGGTGTACTGAAACGTATTTTATT [XGTACX_site6573] | 9.56 |
| ATTTGTAATTATTAAACACACACAAAATATATATAA [CACACA_site8804] | 9.67 |
| TTGTGATTATATAATCGTACATAATTTTAATCACAC [XGTACX_site398] | 9.15 |
| AAAAAAAAAAAAAACACACACATATCTATAATATAT [CACACA_site7481] | 9.86 |
| GAATATAAACATATTACACACATCTATATGTACTTT [CACACA_site8582] | 9.68 |
| CAAAACAAAGTTGCCGCACACAGATACGCACCCAAG [CACACA_site3455] | 9.5 |
| TTTATTTAATTCATTGCATGTAATTTTTGTGTCCAC [TGCATGCA_site677] | 9.21 |
| TTTTATGATAATTTTGCACACACTTAGGAAAAATTA [CACACA_site1556] | 9.31 |
| TTAAAAAAAAATGGCACACATTTTAATTTTATGTTT [CACACA_site5035] | 9.01 |
| AGAATAAAAAGGAACACACACACACGCATATAAATA [CACACA_site7659] | 10.3 |
| TTATCATATGTATGCATACACACAAAAAATTATATA [CACACA_site397] | 9.47 |
| CAAACAAATATATGTTGTACTTATTATATATACATA [XGTACX_site2998] | 9.26 |
| ATAAATGAGCCATATTAAATCCGTTACACGGGTGTG [CACACA_negctrl_site1368] | 9.22 |
| AAATTATTTTGTTATCATTATATATAGATTGAATAT [XGTACX_negctrl_site165] | 9.11 |

| Sequence | gcPBM binding intensity (ln) |
| --- | --- |
| AACGGGTAATGCACAAAAAAAAAAAAATAAAATAAA [TGCATGCA_negctrl_site474] | 9.2 |
| TTCTTTTAAATTAGCTGTACGGTTTTCTACATGCAT [XGTACX_site356] | 9.23 |
| AAAAAAAATATGAAAACACACATATATAAATAAATA [CACACA_site113] | 9.55 |
| TAATATATATGTATGGCACACACGGATAAATATATA [CACACA_site930] | 9.57 |
| CATGCCTTTAAAAAGGTGCAAACATTTTCACAAACA | 9.05 |
| AACAAAATAAGACACACACACAAATGTACCTATATA [CACACA_site7189] | 10 |
| TCTTTTTTAAATAAAAGTACAAAAAAAAATAAAAAA [XGTACX_site2670] | 9.07 |
| ATATAATTTATGTGCACACACTCCTATTTTTAGCTT [CACACA_site50] | 9.72 |
| AAAAAGTAAAAGAAAGCACACACACCGGTATATATG [CACACA_site9281] | 10 |
| AAAAAAAATTTTATCTGTACACATTTTTTTCTTTTT [XGTACX_site4229] | 9.35 |
| TACAATATATTTATAGTGCATATTACTTTTAACTTT | 9.29 |
| TCGTAATAATATAAATGTACTTTATTAATTAAAAGA [XGTACX_site3416] | 8.86 |
| GTAGTCCAAAAAAAGCGTACACAGAAAAAAAAAAAA [XGTACX_site4273] | 9.14 |
| ACATTGCACCCGTGCACACATAGAAAAATAATTCTT [CACACA_site409] | 9.34 |
| ATAACAAAAATCCTTGTGCACTATTTTAATAGAGTC | 9.33 |
| TACATCTTACTACTTATAATATAATATAGTATGAAT [TGCATGCA_negctrl_site8] | 8.93 |
| CATTATGATTAAATATGTACATATTATTATATAAAT [XGTACX_site2477] | 9.08 |
| ATATATATATTATATGCACACTAATAAGACTATTTA [CACACA_site5880] | 9.22 |
| CATAAATACAGTAACACACACAAAAAAATATGAATA [CACACA_site6066] | 10.1 |
